According to PubChem BioAssay AID1461 (National Center for Advancing Translational Sciences (NCATS), 2008):
Hit rate of the full screen: of about 220,000 compounds, about 2,300 (1%) were called active. Inconclusive means that the source gave no clear call. Such entries were picked first, then a sample of the others. Calls follow the shape of the dose curve; as a rule, active = well fitted inhibition curve with a large enough effect; inconclusive = small, poorly fitted or top-dose-only effect, or effect the other way; inactive = no such curve, though single readings can be large or run the other way. No potency is given beside an inconclusive call; the fits are too rough.

Target: Neuropeptide S receptor (Homo sapiens) (UniProt Q6W5P4)
Assay: qHTS Assay for Antagonists of the Neuropeptide S Receptor: cAMP Signal Transduction; also: nearly all actives have a fitted effect of over 50% in size
Details: CHO-NPSR cells, cAMP TR-FRET, antagonist mode; activity change, negative = inhibition: at 38.3 µM (top of the series) unless noted
% is scaled to controls: 0 for no effect and ±100 for the full control effect; potency is read from the fitted curve at half-maximal effect; tags tell the direction and shape of the fitted curve.

Sequence of UniProt Q6W5P4 (Q6W5P4 whole entry, looked up): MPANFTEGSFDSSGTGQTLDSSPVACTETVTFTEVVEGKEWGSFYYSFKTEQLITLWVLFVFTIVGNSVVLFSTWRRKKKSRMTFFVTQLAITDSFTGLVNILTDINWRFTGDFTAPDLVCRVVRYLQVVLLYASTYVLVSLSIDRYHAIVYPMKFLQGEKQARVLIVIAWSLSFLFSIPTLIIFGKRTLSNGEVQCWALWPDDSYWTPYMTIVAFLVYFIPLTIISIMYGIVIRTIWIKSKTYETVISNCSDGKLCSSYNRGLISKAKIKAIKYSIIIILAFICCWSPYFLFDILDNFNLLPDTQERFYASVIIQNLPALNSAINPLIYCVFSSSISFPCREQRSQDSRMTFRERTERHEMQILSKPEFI

Row | Compound | activity change, negative = inhibition | Potency
1 | Cc1[nH]c2c(C)cccc2c1CCNC(=O)c1ccc2c(c1[N+](=O)[O-])C(=O)c1ccccc1C2=O | inactive: -20% [at 46.1 µM] | –
2 | Cc1ccc2nc(NC(=O)C3CC(=O)N(Cc4ccco4)C3)sc2c1 (stereo not given) | inactive: -11.1% | –
3 | O=C(/C=C/c1cccs1)c1ccc(NC(=O)c2cccc(Br)c2)cc1 | inactive: -15% [at 46.1 µM] | –
4 | O=C(O)CCN1C(=O)c2ccncc2C1=O | – | inconclusive [inhibitor, single point]
5 | CCCOc1cc(N(CC)CC)ccc1/C=C(/C#N)c1nc2ccc(C)cc2[nH]1 | – | inconclusive [inhibitor, single point]
6 | Cc1ccc(C(=O)O/N=C2\CCSc3ccc(C)cc32)cc1 | inactive: 1.72% [at 46.1 µM] | –
7 | Cc1ccc(/C=C2\SC(=S)N(CC3CCCO3)C2=O)o1 (stereo not given) | – | inconclusive [activator, single point]
8 | O=C(Cn1cnc2c(nnn2-c2ccccc2)c1=O)NCC1CCCO1 (stereo not given) | – | inconclusive [activator, single point]
9 | N#Cc1cccc(C(c2nnnn2CCc2ccccc2)N2CCN(C3CCCCC3)CC2)c1 (stereo not given) | – | inconclusive [inhibitor, single point]
10 | Cc1cc(C)cc(Cn2ncc(Cl)c(Cl)c2=O)c1 | – | inconclusive [inhibitor, single point]
11 | Cc1cc(NC(=O)CCSc2nc(-c3ccco3)cc(C(F)(F)F)n2)no1 | inactive: -11.6% [at 46.1 µM] | –
12 | CCOCCCn1c(C)nc2c(c1=O)c1nc3ccccc3nc1n2CCC1=CCCCC1 | – | inconclusive [inhibitor, partial curve]
13 | COc1cc(/C=C2\SC(c3ccc(C)cc3)=NC2=O)cc(OC)c1O | – | active: 2 µM
14 | COc1ccc(-c2ccc(F)cc2)cc1[C@H]1[C@H]2C=CC[C@@H](C)[C@@H]2C(=O)N1Cc1ccccc1 | – | inconclusive [inhibitor, single point]
15 | CCc1cc(-c2n[nH]c(C)c2-c2nc3ccccc3n2C)c(O)cc1O | inactive: 23% | –
16 | COC(=O)Nc1nc(-c2ccccc2)c(C(=O)c2ccccc2)s1 | – | inconclusive [activator, partial curve]
17 | O=C1OC(c2ccc3c(c2)OCO3)N(C(=O)c2ccc(Cl)c(Cl)c2)c2ccccc21 (stereo not given) | – | inconclusive [inhibitor, partial curve]
18 | CN1/C(=C/C2CC(=O)N(c3cccc4ccccc34)C2=O)C(C)(C)c2ccccc21 (stereo not given) | inactive: -22.9% [at 46.1 µM] | –
19 | O=C(CSc1nc2ccccc2s1)NC(=O)NCc1ccco1 | inactive: -21.3% [at 46.1 µM] | –
20 | COc1cc(Cl)c(C)cc1NC(=O)COC(=O)/C=C/c1c(C)nn(C2CCS(=O)(=O)C2)c1Cl (stereo not given) | – | inconclusive [inhibitor, partial curve, poor fit]
21 | C=CCn1c(N)c(C(=O)N2CCOCC2)sc1=S | inactive: -1.28% [at 46.1 µM] | –
22 | NC(=O)C1(C(N)=O)OC1c1ccc(Cl)c(Cl)c1 (stereo not given) | – | inconclusive [inhibitor, single point]
23 | O=C(Nc1ccc(Cl)c(C(F)(F)F)c1)c1ccco1 | – | inconclusive [activator, single point]

Row | Compound | activity change, negative = inhibition | Potency
24 | CCN(CC)S(=O)(=O)c1cc(C(=O)OCC(=O)Nc2cccc(Br)c2)ccc1F | inactive: 6.16% | –
25 | Cc1cc(C)n(-c2ccc(C(=O)Nc3ccc(S(=O)(=O)NCc4ccco4)cc3)cc2)n1 | – | inconclusive [inhibitor, single point]
26 | S=C(Nc1cccc(Cl)c1)Nc1cccc2cnccc12 | inactive: 26.5% | –
27 | CC(NC(=O)c1ccco1)C(c1cccs1)N1CCN(c2ccc(F)cc2)CC1 (stereo not given) | – | inconclusive [inhibitor, partial curve]
28 | COc1ccc(CC(=O)NCc2ccccn2)cc1OC | – | inconclusive [inhibitor, partial curve]
29 | CCOC(=O)c1cc2c(=O)[nH]ccc2nc1C(F)(F)F | – | inconclusive [activator, single point]
30 | COc1ccc(OC)c(C(c2nnnn2C2CCCC2)N2CCN(c3ccccc3)CC2)c1 (stereo not given) | – | inconclusive [inhibitor, partial curve]
31 | Cc1cccc(-c2nnc3sc(-c4ccccc4)nn23)c1 | – | inconclusive [inhibitor, single point]
32 | S=C1NC[C@H](CC2CCCCC2)N1CCc1cccc2ccccc12 | – | inconclusive [inhibitor, single point]
33 | COc1ccccc1NC(=O)Nc1nnc(CC(=O)Nc2ccccc2)s1 | inactive: -5.74% | –
34 | COc1ccc(CCNC(=O)C2CCC(CNS(=O)(=O)c3ccc(F)cc3)CC2)cc1OC (stereo not given) | inactive: -1.68% | –
35 | CN(CCNC(=O)C1CCN(S(=O)(=O)N2CCOCC2)CC1)CCc1ccccc1 | – | inconclusive [inhibitor, partial curve, poor fit]
36 | COc1ccccc1N/C(=N/S(=O)(=O)c1ccc(C)cc1)c1ccc(Cl)cc1 | – | inconclusive [inhibitor, single point]
37 | CCOC(=O)C1=C(COc2ccc(C)cc2)NC(=O)NC1c1cc(C)ccc1C (stereo not given) | – | inconclusive [activator, full curve, poor fit]
38 | O=S(=O)(c1ccc(Cl)cc1)N1c2ccccc2Oc2nc3ccccc3nc21 | inactive: -14.5% [at 46.1 µM] | –
39 | CCOC(=O)c1c(/N=C/c2cc(OC)cc([N+](=O)[O-])c2O)sc(C)c1C | inactive: -5.62% [at 46.1 µM] | –
40 | CCCOc1ccc(Cn2cnc3ccccc32)cc1 | – | inconclusive [inhibitor, single point]
41 | CCC(C)NC(=O)C1c2ccccc2C(=O)N(c2ccc(OC)cc2)C1c1ccc(OC)cc1 (stereo not given) | – | inconclusive [inhibitor, single point]
42 | CC(C)CCNC(=O)c1cnn2c(C(F)(F)F)cc(-c3ccco3)nc12 | – | inconclusive [inhibitor, partial curve, poor fit]
43 | CC1(C)Cc2c(sc3c2c(=O)n(Cc2ccccc2)c2nncn32)CO1 | – | inconclusive [inhibitor, single point]
44 | CC1=NN(/C(=N\c2nnc(C)s2)Nc2ccc(C)cc2)[C@H](c2ccc(C)cc2)S1 | – | inconclusive [inhibitor, single point]
45 | Cc1nc(NC(=O)/C=C/c2ccccc2)sc1C(=O)Nc1ccc(Cl)cc1 | – | inconclusive [inhibitor, single point]
